Reference: the supplement of paper PMC7826260
This is one part of the list. Each Rep nickase domain was tested in vitro on the same pool of single strands for 1 h at 37 °C with 3 µM enzyme; only the middle of the 90-letter strands is printed. Uncut reads are compared with the no-enzyme pool on a log2 scale; the lower, the more was cut; hits are not called. Because reads are shares of a total, they shift together; values above 0 arise when much of the pool is cut.

Assays:
Assay in all cases: uncleaved DNA left, log2 of reads against the no-enzyme library (log2 ratio); higher = less cleavage (more negative = more Rep cleavage of the k-mer); sequences stand for … in CTCGTCCG…ACCGGAGA
[1] = test system: T1, Rep nickase domain of Muscovy duck circovirus
T1 sequence (Rep 1-111, printed without the tag): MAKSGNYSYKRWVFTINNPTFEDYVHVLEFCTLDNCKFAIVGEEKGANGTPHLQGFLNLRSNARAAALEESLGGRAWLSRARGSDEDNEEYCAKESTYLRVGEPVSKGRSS
Procedure: (§1)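 A pool of 90-nt single-stranded DNAs with seven random bases just before the constant AC of the nick site (name = the seven bases) was cut by 3 µM recombinant His6-SUMO-tagged Rep nickase domain (300 nM DNA, 50 mM HEPES pH 8.0, 50 mM NaCl, 1 mM MnCl2, 1 h, 37 °C, three replicates). Uncut DNA was amplified and sequenced.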

[2] = test system: T2, Rep nickase domain of banana bunchy top virus
T2 sequence (Rep 1-94, printed without the tag): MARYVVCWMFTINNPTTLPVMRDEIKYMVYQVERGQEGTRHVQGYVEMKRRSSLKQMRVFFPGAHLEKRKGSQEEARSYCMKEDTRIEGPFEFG
Procedure: as §1

[3] = test system: T3, Rep nickase domain of cabbage leaf curl virus
T3 sequence (Rep 1-116, printed without the tag): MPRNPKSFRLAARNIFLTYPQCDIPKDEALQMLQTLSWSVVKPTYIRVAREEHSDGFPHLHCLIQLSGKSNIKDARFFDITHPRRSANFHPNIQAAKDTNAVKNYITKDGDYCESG
Procedure: as §1

[4] = test system: T4, Rep nickase domain of chickpea chlorotic dwarf virus
T4 sequence (Rep 1-124, printed without the tag): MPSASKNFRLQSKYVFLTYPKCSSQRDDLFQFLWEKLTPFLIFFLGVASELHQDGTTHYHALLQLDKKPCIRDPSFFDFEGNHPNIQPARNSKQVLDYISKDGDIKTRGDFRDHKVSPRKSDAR
Procedure: as §1

[5] = test system: T5, Rep nickase domain of faba bean necrotic yellows virus
T5 sequence (Rep 1-98, printed without the tag): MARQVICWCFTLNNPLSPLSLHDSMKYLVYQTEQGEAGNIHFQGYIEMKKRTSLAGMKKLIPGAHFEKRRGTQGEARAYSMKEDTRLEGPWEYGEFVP
Procedure: as §1

[6] = test system: T6, Rep nickase domain of maize striate mosaic virus
T6 sequence (Rep 1-117, printed without the tag): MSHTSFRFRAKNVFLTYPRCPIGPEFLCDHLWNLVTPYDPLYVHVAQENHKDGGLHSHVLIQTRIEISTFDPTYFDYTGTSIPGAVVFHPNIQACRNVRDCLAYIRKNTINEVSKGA
Procedure: as §1

[7] = test system: T7, Rep nickase domain of porcine circovirus 2
T7 sequence (Rep 2-116, printed without the tag): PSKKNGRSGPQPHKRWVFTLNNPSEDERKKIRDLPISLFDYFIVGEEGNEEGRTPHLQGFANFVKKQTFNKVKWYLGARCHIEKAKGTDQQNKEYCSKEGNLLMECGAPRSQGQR
Procedure: as §1

[8] = test system: T8, Rep nickase domain of tomato golden mosaic virus
T8 sequence (Rep 1-124, printed without the tag): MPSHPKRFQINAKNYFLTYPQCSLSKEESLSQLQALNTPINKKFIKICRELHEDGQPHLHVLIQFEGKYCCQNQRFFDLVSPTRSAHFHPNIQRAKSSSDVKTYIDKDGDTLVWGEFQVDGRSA
Procedure: as §1

[9] = test system: T9, Rep nickase domain of tomato yellow leaf curl virus
T9 sequence (Rep 1-136, printed without the tag): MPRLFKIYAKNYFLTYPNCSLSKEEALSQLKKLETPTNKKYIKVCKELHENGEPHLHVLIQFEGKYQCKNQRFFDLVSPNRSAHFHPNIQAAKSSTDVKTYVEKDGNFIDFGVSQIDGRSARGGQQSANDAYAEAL
Procedure: as §1

[10] = test system: T10, Rep nickase domain of wheat dwarf virus
T10 sequence (Rep 1-137, printed without the tag): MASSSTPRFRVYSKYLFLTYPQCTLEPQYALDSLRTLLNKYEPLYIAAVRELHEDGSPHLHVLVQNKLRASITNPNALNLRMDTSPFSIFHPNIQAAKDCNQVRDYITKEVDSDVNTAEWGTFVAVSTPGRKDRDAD
Procedure: as §1

| Sequence | uncleaved DNA left (log2) [1] | uncleaved DNA left (log2) [2] | uncleaved DNA left (log2) [3] | uncleaved DNA left (log2) [4] | uncleaved DNA left (log2) [5] | uncleaved DNA left (log2) [6] | uncleaved DNA left (log2) [7] | uncleaved DNA left (log2) [8] | uncleaved DNA left (log2) [9] | uncleaved DNA left (log2) [10] |
| --- | --- | --- | --- | --- | --- | --- | --- | --- | --- | --- |
| CGCCTGA | -0.149 | 0.00341 | -0.0523 | 0.461 | 0.093 | 1.42 | -0.0729 | -0.223 | -0.166 | -0.023 |
| GAGAACC | -0.102 | 0.0622 | 0.441 | 0.822 | 0.0275 | 1.21 | -0.109 | -0.0117 | 0.0683 | 0.102 |
| CCAGTGA | 0.0734 | 0.0407 | -0.384 | -0.494 | 0.0222 | -0.935 | 0.0753 | -0.00656 | 0.112 | -0.00373 |
| TGGTCTG | 0.0489 | 0.00847 | 0.133 | 0.821 | 0.0819 | 1.24 | 0.0328 | -0.0348 | -0.0279 | 0.0552 |
| ATTACAC | 0.048 | 0.00648 | -0.0809 | -1.88 | -0.0822 | -0.756 | -0.00599 | -0.072 | -0.0444 | 0.00615 |
| AGGCGCA | 0.102 | 0.0616 | 0.0795 | 0.331 | 0.0792 | 0.411 | 0.0816 | 0.181 | 0.0335 | 0.174 |
| GCCCTTG | 0.0785 | -0.0462 | -0.203 | -0.461 | 0.0158 | -0.467 | 0.114 | 0.0804 | 0.000527 | -0.0225 |
| AACCTAA | 0.00727 | -0.0354 | -0.0713 | -1.08 | -0.0386 | -0.601 | -0.227 | 0.0826 | 0.0414 | 0.0871 |
| CCCGAAG | -0.0891 | 0.0371 | -0.669 | -0.465 | -0.0123 | -1.02 | 0.121 | -0.157 | -0.0328 | -0.115 |
| CTCATTG | -0.0276 | 0.0872 | -0.612 | -0.455 | 0.24 | -1.09 | 0.128 | 0.141 | 0.146 | 0.101 |
| ACAGCCA | 0.0272 | -0.0563 | -0.333 | -1.25 | -0.105 | -0.756 | 0.055 | 0.109 | -0.111 | 0.0306 |
| GCTGTAC | 0.0567 | -0.0885 | 0.0257 | 0.141 | -0.0962 | 0.505 | 0.0938 | 0.0121 | 0.0356 | -0.0107 |
| AAAGACC | 0.0657 | 0.0492 | 0.0942 | 0.457 | -0.00128 | 0.142 | 0.134 | 0.0523 | 0.00969 | 0.121 |
| TGGCCGG | 0.0739 | 0.035 | 0.488 | 1.21 | 0.125 | 1.61 | 0.134 | 0.111 | 0.092 | 0.0888 |
| ATTATAT | -0.172 | -0.00669 | 0.128 | -0.836 | 0.0814 | -0.465 | -3.18 | 0.18 | 0.0608 | 0.113 |
| TCCGCCG | -0.0139 | -0.085 | -0.73 | -0.0286 | 0.0308 | -0.711 | 0.0234 | -0.0167 | -0.0317 | -0.11 |
| GTACCTG | 0.0198 | 0.0323 | 0.119 | 0.442 | 0.0436 | 1.25 | -0.0837 | 0.0392 | -0.0338 | 0.0104 |
| ACTCTCT | -0.14 | -0.192 | -0.459 | -2.19 | -0.127 | -0.616 | -0.701 | -0.0614 | -0.308 | -0.1 |
| GGCCAAT | 0.0699 | 0.178 | 0.745 | 1.8 | 0.0784 | 2.08 | 0.203 | 0.234 | 0.113 | 0.31 |
| GATTTGT | -2.7 | -1.99 | 0.151 | 0.0385 | 0.145 | -0.00687 | -2.9 | 0.102 | 0.0996 | 0.0223 |
| TGTCGTG | -0.145 | -0.131 | -0.705 | -0.895 | -0.0902 | -1.04 | -0.0995 | -0.202 | -0.0856 | -0.283 |
| GACACCA | -0.00744 | 0.0487 | 0.327 | -0.659 | 0.0403 | 0.776 | -0.0326 | 0.0428 | -0.0148 | 0.0617 |
| CTAACCA | -0.147 | 0.0862 | -0.303 | -2.08 | 0.00605 | -0.552 | -0.583 | 0.0303 | 0.251 | 0.0969 |
| GACGGGA | 0.0331 | 0.0762 | 0.491 | 0.954 | 0.0677 | 1.33 | 0.0572 | 0.155 | 0.0629 | 0.0398 |
| CCCGTCG | 0.0668 | 0.00284 | -0.647 | -0.191 | -0.0233 | -0.959 | 0.169 | 0.175 | -0.0319 | -0.0122 |
| TCGTTAT | -0.0529 | -0.121 | 0.0676 | -0.723 | -0.0113 | -0.181 | -2.75 | -0.17 | 0.00519 | -0.122 |
| TCGAGCA | 0.00202 | 0.103 | 0.134 | 0.305 | -0.00118 | 0.0391 | -2.46 | 0.0989 | 0.108 | 0.145 |
| GAAAGGT | 0.169 | 0.125 | 0.26 | 0.656 | -0.0526 | 1.46 | 0.0738 | 0.0415 | 0.0459 | 0.0995 |
| ACAGGCC | -0.098 | -0.0181 | -0.218 | -0.158 | 0.0593 | -0.723 | 0.155 | 0.087 | 0.0685 | 0.0571 |
| GAACCCT | -0.0979 | 0.0398 | 0.0643 | -1.69 | 0.0494 | 0.998 | -0.388 | 0.0425 | 0.188 | 0.0386 |
